The list shows a part of the results. Antibody binding of pooled human sera (four to six donors per pool; dilution not stated) to peptides of the Trypanosoma cruzi antigen TSSA on microarrays. Quantile-normalised fluorescence in arbitrary units, mean of duplicate arrays; higher = more binding. No active / inactive call. The uninfected pools are read here as the healthy donors of the same country. The strongest signals lie near the top of the scale (about 60,000).
Key:
Experiment in all cases: antibody binding signal (normalised fluorescence) (arbitrary fluorescence units); higher = stronger serum antibody binding to peptide
[1] = test system: pooled sera of chronic Chagas disease patients, Argentina
Procedure: (§1)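 Microarray of 15-residue peptides over residues 30-55 of Trypanosoma cruzi TSSAII, each with 1 to 10 substitutions at naturally variable positions, probed with one serum pool per country.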

[2] = test system: pooled sera of chronic Chagas disease patients, Bolivia
Procedure: as §1

[3] = test system: pooled sera of chronic Chagas disease patients, Brazil
Procedure: as §1

[4] = test system: pooled sera of chronic Chagas disease patients, Colombia
Procedure: as §1

[5] = test system: pooled sera of chronic Chagas disease patients, Mexico
Procedure: as §1

[6] = test system: pooled sera of chronic Chagas disease patients, USA
Procedure: as §1

[7] = test system: pooled sera of uninfected people, Argentina
Procedure: as §1

[8] = test system: pooled sera of uninfected people, Bolivia
Procedure: as §1

[9] = test system: pooled sera of uninfected people, Brazil
Procedure: as §1

[10] = test system: pooled sera of uninfected people, Colombia
Procedure: as §1

[11] = test system: pooled sera of uninfected people, Mexico
Procedure: as §1

[12] = test system: pooled sera of uninfected people, USA
Procedure: as §1

| Sequence | antibody binding signal [1] | antibody binding signal [2] | antibody binding signal [3] | antibody binding signal [4] | antibody binding signal [5] | antibody binding signal [6] | antibody binding signal [7] | antibody binding signal [8] | antibody binding signal [9] | antibody binding signal [10] | antibody binding signal [11] | antibody binding signal [12] |
| --- | --- | --- | --- | --- | --- | --- | --- | --- | --- | --- | --- | --- |
| TDNKPATGETPSPPG | 33400 | 31600 | 35200 | 274 | 148 | 26100 | 207 | 427 | 345 | 158 | 1900 | 1520 |
| PSGKDKKAATGEAPS | 19100 | 3800 | 14500 | 2470 | 3360 | 20300 | 311 | 233 | 98.8 | 197 | 78.5 | 143 |
| KDNKTAAGEAPSPPG | 986 | 221 | 1680 | 1890 | 317 | 5550 | 448 | 171 | 185 | 240 | 110 | 141 |
| SGKEKKAATGGAPSQ | 4730 | 266 | 2400 | 2880 | 6390 | 4910 | 265 | 134 | 102 | 241 | 85 | 96.8 |
| PPSGTDKKTAAGGTP | 6790 | 1800 | 16000 | 13400 | 29200 | 2430 | 223 | 197 | 1110 | 357 | 636 | 196 |
| GTDNKTATGGAPSQS | 868 | 545 | 29500 | 984 | 881 | 567 | 368 | 709 | 1960 | 182 | 368 | 178 |
| GTENKPAAGETPSQS | 48100 | 4290 | 21800 | 1150 | 2780 | 4640 | 334 | 1630 | 255 | 220 | 185 | 127 |
| GKDKKTATGGAPSQP | 502 | 202 | 272 | 677 | 620 | 481 | 252 | 122 | 368 | 79.7 | 110 | 88.9 |
| PPSGKDNKTAAGGAP | 869 | 287 | 1680 | 3550 | 5670 | 2850 | 550 | 403 | 154 | 279 | 103 | 310 |
| PSGKENKPAAGEAPS | 10500 | 5790 | 20900 | 11300 | 11000 | 18600 | 7430 | 5560 | 380 | 490 | 569 | 294 |
| GKDKKTATGEAPSPP | 5840 | 3050 | 5820 | 2950 | 3440 | 15200 | 143 | 85.8 | 101 | 96.4 | 82.9 | 107 |
| ENKTAAGGTPSPSGA | 1530 | 2110 | 383 | 6360 | 419 | 1850 | 266 | 202 | 1790 | 396 | 1600 | 195 |
| TISTPPSGKDNKPAT | 15800 | 5350 | 29000 | 408 | 20900 | 13500 | 416 | 1370 | 394 | 188 | 146 | 300 |
| GKDNKPAAGEAPSPP | 2190 | 595 | 29600 | 1890 | 2870 | 16200 | 278 | 794 | 202 | 206 | 273 | 76.4 |
| TPPSGKENKPATGGA | 35800 | 19600 | 12800 | 591 | 9380 | 12500 | 4050 | 2840 | 202 | 559 | 314 | 735 |
| KPAAGGTPSPPGASS | 202 | 203 | 248 | 1640 | 278 | 190 | 149 | 170 | 280 | 240 | 94.2 | 165 |
| SGTDNKTAAGGTPSQ | 1880 | 310 | 44600 | 6570 | 441 | 1390 | 223 | 646 | 2420 | 225 | 2080 | 279 |
| GKENKTATGGTPSPP | 2260 | 486 | 7640 | 3890 | 4100 | 12800 | 472 | 119 | 122 | 158 | 196 | 116 |
| TSSTPPSGTEKKPAA | 46200 | 6280 | 44400 | 850 | 39400 | 11700 | 2120 | 902 | 289 | 165 | 227 | 885 |
| PPSGKENKPAAGGTP | 13000 | 3180 | 3310 | 2310 | 4910 | 11400 | 4800 | 2130 | 439 | 556 | 227 | 525 |
| EKKPATGETPSPPGA | 30600 | 23800 | 30000 | 269 | 208 | 20800 | 166 | 578 | 235 | 174 | 1680 | 787 |
| KDNKAATGEAPSQSG | 23800 | 23200 | 35200 | 178 | 9910 | 24000 | 466 | 819 | 189 | 190 | 120 | 110 |
| PSGTDKKTATGEAPS | 13900 | 20000 | 14300 | 1760 | 780 | 20500 | 213 | 584 | 253 | 240 | 284 | 242 |
| DNKTATGETPSPSGA | 526 | 1000 | 1700 | 374 | 189 | 6850 | 168 | 230 | 202 | 157 | 175 | 757 |
| GTEKKAAAGGTPSPP | 390 | 201 | 244 | 5540 | 587 | 1920 | 154 | 723 | 2170 | 178 | 130 | 146 |

Source: the supplement of paper PMC10441789
